Hit rate of the full screen: of about 220,000 compounds, about 16,000 (7.3%) were called active. This list was built around the results that the source calls inconclusive (neither active nor inactive); the mix of calls is not that of the screen. Calls come from the whole dose curve; as a rule, active = well fitted inhibition curve with a large enough effect (not every such curve was filed as active); inconclusive = small, poorly fitted or top-dose-only effect, or another doubt; inactive = no such curve, though single readings can be large or run the other way. Potencies beside an inconclusive call are fits to weak or partial responses and may not hold up.
Biological target: Aldehyde dehydrogenase 1A1 (Homo sapiens) (UniProt P00352)
Experiment: qHTS Assay for Inhibitors of Aldehyde Dehydrogenase 1 (ALDH1A1)
Details: Purified ALDH1A1, NADH fluorescence, propionaldehyde substrate; series mostly up to 75.3 µM
Potency is the fitted concentration of half-maximal effect; tags give direction and shape of the fitted curve.

Chain of UniProt P00352 (P00352 whole entry, looked up): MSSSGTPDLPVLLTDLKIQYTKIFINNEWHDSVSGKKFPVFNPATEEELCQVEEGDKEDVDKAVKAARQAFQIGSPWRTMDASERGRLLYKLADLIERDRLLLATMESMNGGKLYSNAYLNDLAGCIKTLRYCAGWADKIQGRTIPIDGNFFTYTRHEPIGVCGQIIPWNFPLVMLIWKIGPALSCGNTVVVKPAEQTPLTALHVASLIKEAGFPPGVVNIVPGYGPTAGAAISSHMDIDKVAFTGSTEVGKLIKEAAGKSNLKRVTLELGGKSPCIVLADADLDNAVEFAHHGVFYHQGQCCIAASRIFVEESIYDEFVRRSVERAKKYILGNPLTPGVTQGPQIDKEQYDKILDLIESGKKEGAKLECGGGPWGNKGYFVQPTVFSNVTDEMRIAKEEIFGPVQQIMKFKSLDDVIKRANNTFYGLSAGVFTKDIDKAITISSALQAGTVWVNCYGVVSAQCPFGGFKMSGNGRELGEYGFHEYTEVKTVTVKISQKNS

Potency, inconclusive:
CO/N=C/CC(=O)c1cnc(-c2ccccc2)s1 0.447 µM [inhibitor, full curve], CCOC(=O)c1sc(NC(=O)CSc2nnnn2-c2ccccc2)nc1C 39.8 µM [inhibitor, single point], CCCn1c(C)cc(/C=C(\C#N)C(=O)OCC(=O)NC(=O)NCC)c1C 35.5 µM [inhibitor, single point], O=C(c1c[nH]c2ccc(S(=O)(=O)N3CCC4(CC3)OCCO4)cc2c1=O)N1CCOCC1 39.8 µM [inhibitor, single point], COc1cc(-c2cc(C(=O)O)c3c(OC)c(OC)c(OC)cc3n2)ccc1O 31.6 µM [inhibitor, single point], Cn1c(N=NC(=O)c2ccccc2)c(O)c2ccccc21 25.1 µM [inhibitor, partial curve], O=C(NCc1cccnc1)c1cnc2sccn2c1=O 39.8 µM [inhibitor, single point], CC(=O)N1CCN(S(=O)(=O)c2cccc(C(=O)Nc3nc4c(s3)CCCC4)c2)CC1 22.4 µM [inhibitor, single point], Cc1[nH]c2ccccc2c1C(C[N+](=O)[O-])c1ccco1 (stereo unspecified) 44.7 µM [inhibitor, single point], CCN(CC)S(=O)(=O)c1ccc2c(c1)nc(CCC(=O)Nc1cccc(C(F)(F)F)c1)n2CC 39.8 µM [inhibitor, single point], Cc1cccc(NC(=O)c2cc(-c3ccc(C)s3)nc3ccccc23)n1 23.8 µM [inhibitor, partial curve], COc1cc(Cl)c(C)cc1NC(=O)c1ccc2c(SCC(=O)O)c3c(nc2c1)CCCC3 14.1 µM [inhibitor, partial curve], Cc1ccc(-c2nc3cccnc3s2)cc1NS(=O)(=O)c1ccc2c(c1)OCCO2 31.6 µM [inhibitor, partial curve], Cc1cc(C)nc(-n2nc(C)cc2NC(=O)c2ccc(F)cc2F)n1 8.91 µM [inhibitor, single point], O=C(Oc1c(-c2ccco2)oc2ccccc2c1=O)c1cccnc1 15.8 µM [inhibitor, partial curve], O=C(c1cccnc1)N1CCN(CCCc2ccccc2)CC1 39.8 µM [inhibitor, single point], CCOC(=O)CCc1c(C)c2ccc(O)cc2oc1=O 31.6 µM [inhibitor, partial curve], CC(=O)Oc1ccc(C)cc1-n1nc2ccccc2n1 25.1 µM [inhibitor, single point], CN1CCc2nc(NC(=O)COc3ccc4ccccc4c3)sc2C1 22.4 µM [inhibitor, single point], Cc1cccc(NC(=O)C2CCN(S(=O)(=O)c3c(C)noc3/C=C/c3ccco3)CC2)n1 39.8 µM [inhibitor, single point], COc1ccc(N(C)S(=O)(=O)c2cccc(C(=O)Nc3ccc4c(c3)OCCO4)c2)cc1 20 µM [inhibitor, partial curve], CCCCOC(=O)CNc1nnc(SCC(=O)OCC)[nH]c1=O 25.1 µM [inhibitor, single point], N=C(N)SCc1nc2ccccc2c(=O)n1-c1ccccc1Cl 35.5 µM [inhibitor, partial curve], COc1ccc(/C=C(\C#N)C(=O)Nc2cc(S(=O)(=O)N3CCCCC3)ccc2N2CCCCC2)cc1 17.8 µM [inhibitor, partial curve], COc1ccc(-n2cnnc2SCC(=O)Nc2cccc(S(=O)(=O)N3CCCCC3)c2)cc1 39.8 µM [inhibitor, single point], Cc1cc(=O)oc2cc(OCC(=O)N3c4ccccc4CC3C)ccc12 (stereo unspecified) 25.1 µM [inhibitor, partial curve], Cc1cccc(NC(=O)c2c(-c3ccccc3)noc2C)n1 8.91 µM [inhibitor, single point]

Potency, inactive:
Nc1nnc(SCc2cn3cc(Cl)ccc3n2)s1, COc1cc(C(=S)N2CCN(c3ccccc3Cl)CC2)cc(O)c1O, CCOC(=O)C(=CNCC(=O)OC)C(=O)OCC, c1cc(CNC2C3CC4CC(C3)CC2C4)ccn1 (stereo unspecified), CC(=O)Nc1ccc(S(=O)(=O)Oc2ccc(C(=S)N3CCC(O)CC3)cc2)cc1, S=c1[nH]nc(-c2ccc3ncccc3c2)n1-c1ccc2c(c1)OCCO2, NCCCCCc1nnc(SCc2ccc(Cl)c(Cl)c2)o1, O=C(O)COc1ccc(=O)n(-c2ccccc2)n1, COCc1cc(C)n(CC(=O)Nc2c(C)cccc2C)c(=O)c1C#N, O=C(NC1CCCC1)C(c1ccc(F)cc1)N(Cc1ccc(F)cc1)C(=O)CCl (stereo unspecified), CCCc1c(OCCCOc2ccc(OCC(=O)O)cc2)ccc(CC=O)c1O

Potency, active:
O=C(Nc1ccccc1CC[N+](=O)[O-])N1CCN(c2ccccc2)CC1 8.91 µM, O=C(CNC(=S)N(Cc1ccccc1)Cc1cccnc1)NCc1ccccc1 17.8 µM, CCCC(=O)Nc1ccc(Cl)c(NC(=O)c2cccc(OC)c2)c1 2.82 µM, CN1CCc2nc3sc(C(=O)NCc4ccccc4)c(N)c3cc2C1 25.1 µM, Cc1ccc(NC(=S)Nc2cccc3cnccc23)cc1C 2.51 µM, COc1ccc(Cl)cc1NC(=O)Cn1c(=O)n2nc(C)nc2c2ccccc21 7.94 µM, Cc1[nH]n(-c2ncc(-c3ccccc3)s2)c(=O)c1C(c1ccc(Cl)cc1)C(C#N)C#N (stereo unspecified) 28.2 µM, Cc1[nH]n(-c2ccccc2)c(=S)c1C=Nc1cccc([N+](=O)[O-])c1 5.62 µM
